# According to paper PMC5836133:
# The list shows a part of the results. At the low end of the ranking, values are background and their order means little.
# Tested on: T1, GST-NbGlk1(82-244)
# T1 sequence: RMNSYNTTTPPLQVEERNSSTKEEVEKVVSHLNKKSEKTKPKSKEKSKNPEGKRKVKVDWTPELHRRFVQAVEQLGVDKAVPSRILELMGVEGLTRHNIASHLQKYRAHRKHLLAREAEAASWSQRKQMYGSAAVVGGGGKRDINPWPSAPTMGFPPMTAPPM
# Assay: protein-binding microarray;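 further: rank-based score ranging −0.5 to +0.5 with E above 0.45 taken as significant binding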
# Conditions: NbGlk1 is a Golden2-like transcription factor of Nicotiana benthamiana; high values mean tight binding; most listed sequences are background and not binding sites; double strand, one strand shown
row,Sequence,binding signal [E-score]
1,AACCGCAA,0.0585
2,ACAGGAGT,-0.124
3,AAGCAGGT,-0.03
4,AAGCCTTA,-0.11
5,ACACCAGC,-0.113
6,ACTAGAGC,-0.15
7,ATCGGTGA,0.229
8,ATTCAATC,0.0912
9,ACGGCTGG,-0.0982
10,ACCTGGGC,-0.144
11,ATATCGAA,0.272
12,ACGTCGTA,0.0632
13,ATCGGCGG,0.0203
14,ATTGAGCC,-0.284
15,ATTATGTA,0.215
16,AATGCCCC,-0.183
17,ACTTTCCG,-0.0651
18,CACCTACC,-0.152
19,CACACGGA,0.0177
20,ACTCGCAT,-0.0429
21,CACGGCGG,-0.11
22,ACTCGGCC,-0.128
23,ATCCATGG,0.191
24,AGGCAAAG,-0.148
25,AATAACAT,0.00177

row,Sequence,binding signal [E-score]
1,AATATCGG,0.371
2,AAACAATA,0.15
3,ACCACCGC,-0.139
4,ATAAACGG,-0.0262
5,AACTCCCC,-0.28
6,ATGATCTC,0.237
7,AATGCGCA,-0.0252
8,AAATTAGC,0.0276
9,CAAAGCGC,-0.198
10,AAGGGACT,-0.254
11,CAACTATA,0.0311
12,ATGGTCCA,0.00911
13,ACGACAGA,0.0397
14,ACTTGCGG,-0.0533
15,ACCAGTCT,-0.158
16,ACGTAGGC,-0.189
17,AATCTGAG,0.415
18,AGAGCAAT,0.173
19,AACCCCTT,-0.136
20,ATAGTAAA,0.139
21,ATTCCGAC,0.143
22,CACTCTAG,0.00849
23,ACTTCCCG,-0.196
24,ATTCTATG,0.187
25,AGGACTAA,-0.234

row,Sequence,binding signal [E-score]
1,ACTCTAGA,0.0375
2,ACCTCATC,-0.0591
3,AGATGCCG,0.044
4,ATCTAAAG,0.176
5,ATATCTGG,0.401
6,ATAAAGGA,0.124
7,AGCCTAAC,-0.217
8,ACGGTTTA,-0.0063
9,AAGCACAG,-0.146
10,ACCAATTG,-0.0326
11,ACGGGCGG,-0.0389
12,AAAACGGT,-0.121
13,CAAGAACG,-0.0572
14,ACCGAAAC,-0.12
15,ACCAGCCA,-0.11
16,AGCGCTGG,-0.124
17,ATGCAAAT,0.299
18,ATCGTACA,0.149
19,ACTAAACC,-0.111
20,AAGGGATC,0.139
21,AAGCGGGT,-0.0466
22,AAGAGCGC,-0.047
23,ATCTGATC,0.329
24,AGTCCAAG,-0.024
25,AAGGCCGG,-0.17

row,Sequence,binding signal [E-score]
1,ATAATGTG,0.0796
2,AGGAAAAC,-0.0961
3,ACAGGTTA,-0.0964
4,ATCTTGCG,0.192
5,ATCGCCGC,0.155
6,CACGGGGG,-0.316
7,ACAAGTAA,0.0473
8,ATTTTAAG,0.229
9,AACATGTC,-0.196
10,ATATCAAG,0.298
11,ACATAGTC,-0.02
12,CACATGCG,-0.171
13,AATGCATA,0.157
14,ACTCATCC,-0.0924
15,AGGACTGC,-0.181
16,AGCTTTCA,-0.13
17,CACTATGA,-0.0471
18,ACGAATGC,-0.197
19,ATCACTTC,0.101
20,CAGCACTG,-0.126
21,AGGCAAAC,-0.0907
22,AAGCCTCC,-0.198
23,ACAACTGA,-0.00799
24,CAACAAAA,0.185
25,AAGAACGT,-0.0344

row,Sequence,binding signal [E-score]
1,AGTTACGC,0.0245
2,ACCTAGGA,-0.177
3,ATCACGCC,0.135
4,AGACCGTG,-0.212
5,AAATGGCT,-0.298
6,ACGAGTAG,-0.142
7,ACCAAAGG,-0.146
8,ATACATGA,0.137
9,ATCCTCGG,0.194
10,ACAGGTGA,-0.14
11,AAAAGAAC,-0.0339
12,AAACCGCC,-0.236
13,AGTTATAC,0.0694
14,ATAAGAGA,0.0488
15,AGCATCTC,0.0203
16,AACGTGAC,-0.25
17,AGAAAATA,0.175
18,AATACTCT,-0.00729
19,ACTGGCAA,0.0586
20,ACCTCAAG,-0.0775
21,AGCCTAGA,-0.105
22,CAGCAGAG,-0.0542
23,CACACGGG,-0.116
24,AGAACGCT,-0.138
25,ATTCCGCC,0.166

row,Sequence,binding signal [E-score]
1,AATCGTGA,0.312
2,ACAGTGCT,-0.139
3,ATAGACGA,-0.0219
4,ACCCCCGG,-0.322
5,ATTACTTA,0.22
6,ATCGTTGA,0.183
7,AATAAGTC,-0.00849
8,AGATGCAG,0.0183
9,AAAAAGCC,-0.196
10,ACCTGGCC,-0.186
11,AATGCCAG,-0.00403
12,AGGCGTCA,-0.235
13,ACTGCGCC,0.0066
14,CAAGGGTG,-0.235
15,AGGGTCCG,-0.23
16,ACGTCTCG,-0.0648
17,ACATGTAA,0.148
18,ACTTACGG,0.0151
19,ATGTTACC,-0.0458
20,ACTGCGAA,-0.036
21,AAACAATT,0.0478
22,ACGGATAG,-0.0213
23,ATCCACTG,0.283
24,AGGGGAAG,-0.0863
25,AACGTGGT,-0.181

row,Sequence,binding signal [E-score]
1,AGGTCCTA,-0.213
2,ACAGGCCG,-0.237
3,CAATTATA,0.186
4,AAAGTATA,0.122
5,ACTGTACG,-0.0907
6,ATACGATA,0.295
7,ACTAGAAG,0.0752
8,CACGTCGA,0.0436
9,ACAGACGC,-0.0252
10,ACGGAGTG,-0.232
11,AATAATAT,0.259
12,ACGTCGCC,-0.0746
13,AACGCTAG,-0.166
14,ATCGGCAG,0.0653
15,ACAGGGGC,-0.215
16,ATTTATGC,0.00576
17,AGTGCCGG,-0.181
18,AGCGGACT,-0.182
19,AGCGGCCC,-0.378
20,CAAAACTG,-0.0391
21,ACTGCATG,-0.0993
22,AGCCAAAG,-0.195
23,ATCGTTTC,0.0826
24,AAATAGAA,0.132
25,CAAGGGCA,-0.215

row,Sequence,binding signal [E-score]
1,AATTATCT,0.159
2,ATAGAGAA,0.231
3,AGTGAAAT,0.208
4,ATAGAGTA,0.104
5,ATGCAACG,0.066
6,AAAATGGG,0.011
7,ATGACTGG,-0.239
8,ATGAGCAA,-0.0262
9,ATAGTCCA,-0.00764
10,ATCTTGGC,0.169
11,ATAGGGCC,-0.209
12,ATCGTTCC,-0.0226
13,CAGAGCTG,-0.156
14,ACTAACAT,0.121
15,ACAGTTTG,-0.0957
16,ACCGACAG,-0.122
17,AGGCCGCC,-0.275
18,ACCTGGTG,-0.303
19,AAGCGTAG,-0.0582
20,ATATCTAG,0.392
21,ACGGGAAA,0.142
22,AAAGCCCA,-0.255
23,ATTCACGG,0.0555
24,ATAGGAAT,0.275
25,CAGAATCA,0.373

row,Sequence,binding signal [E-score]
1,CAAACATC,-0.148
2,ATGATAAT,0.119
3,ACATGTTG,-0.119
4,ACTGGTCG,-0.26
5,ATTCTGGC,0.159
6,AAGTCGCG,-0.0519
7,AGAAATGG,-0.0862
8,ATGGCATC,-0.172
9,AACTCTAT,-0.0808
10,CACACTAG,0.0121
11,ATACCTCG,0.0671
12,ACACTAAA,0.122
13,ATTAGAGC,0.00505
14,ATGGGCCA,-0.0975
15,AAGCCGTC,-0.322
16,AGACTTAA,0.0189
17,CAAGAATG,-0.118
18,AGCCGAAG,-0.176
19,ACACCTTA,-0.0509
20,AAGGGGTA,-0.0374
21,ATAGACCA,-0.229
22,ACTTAGGA,0.00132
23,AGAGTCGC,-0.305
24,ATCCCGTC,0.144
25,CAACGCAA,0.155

row,Sequence,binding signal [E-score]
1,ACTGATAC,0.204
2,CACGTCCC,-0.212
3,ATGGCCGG,-0.275
4,CACATACG,0.0752
5,ACGCGCCG,-0.204
6,AACCACAC,-0.138
7,ACCGATCA,-0.0483
8,ATTATTCG,0.192
9,AATAGGAA,0.121
10,AAGCCAGG,-0.168
11,AGAAACTG,-0.0807
12,ATCAAGTA,0.104
13,AACCCGGT,-0.271
14,ACTAGTTG,-0.048
15,AACATGGA,0.111
16,AATTGTAC,-0.0224
17,AAGTCAGA,0.00365
18,AAGAGCAA,-0.0617
19,ACAACGGT,-0.0975
20,ATAGTAAC,-0.0239
21,ACCCGCGG,-0.121
22,AGATCTCA,0.413
23,AACTAGAA,0.207
24,ATTCTGAC,0.242
25,ACCTCATG,-0.209

row,Sequence,binding signal [E-score]
1,AGAGTTCA,-0.0709
2,AGGTAAAT,0.205
3,AAAGTGGA,0.102
4,ACAGAGAC,-0.0479
5,CACTTCTC,-0.142
6,ACGGAGTC,-0.29
7,ATGAACAG,-0.0477
8,AACAATCA,0.13
9,AAGCTCCG,-0.104
10,AATTCAGC,-0.0198
11,AATCACGG,0.256
12,AATACCGA,0.0517
13,AGGTGCTC,-0.279
14,AAAACTCG,-0.00869
15,AGAGGCCT,-0.238
16,ACGAGCAC,-0.193
17,AACTAGAC,-0.102
18,AACACCGC,-0.0281
19,AGGGGGAT,0.0335
20,AGCGTGAC,-0.205
21,AACAAGTT,-0.0851
22,AAAGACCG,-0.153
23,CAATGATG,0.0618
24,ACTTCCCT,-0.115
25,AAGGCCTC,-0.248

row,Sequence,binding signal [E-score]
1,ACAGTTGG,-0.175
2,AATATATA,0.27
3,AGGACGTA,-0.0232
4,ACATTCTA,0.106
5,ATTAAACG,-0.101
6,ACAGCCAG,-0.182
7,AGAGTCGG,-0.192
8,CAAGGAAG,-0.0946
9,ACCACTCA,0.036
10,AAGGTGCC,-0.214
11,AAAGAAAA,0.147
12,AACCATCG,-0.0487
13,ACCGTCAT,-0.0655
14,AAGACGAC,-0.212
15,AGATTTAG,0.276
16,AAGTTTCA,0.0242
17,AAAAGTGT,-0.0392
18,AATTTCAT,0.238
19,ATTACACA,0.31
20,AGGTGCTG,-0.117
21,ACCAGCAT,0.0235
22,AACTCAAG,-0.049
23,CACGGCTC,-0.197
24,ATATCCAT,0.43
25,AGGCCCCT,-0.387

row,Sequence,binding signal [E-score]
1,ACACTGCG,-0.154
2,AAACGCTG,0.00984
3,ATACATCA,0.0926
4,ACACCTGC,-0.186
5,ATCTAACG,0.218
6,ATACGTTG,0.127
7,AATCATGT,0.304
8,AGCTATAC,-0.0325
9,ACTTTTGC,-0.1
10,CAACCAGC,-0.206
11,ATGACAAT,0.139
12,CACCAAAA,0.039
13,ATTAGATA,0.304
14,CACGGGAA,0.00932
15,ACTAGGCG,-0.0141
16,AACTCTGT,-0.0296
17,ATAGCTAG,-0.0111
18,AGAAGGGC,-0.299
19,ACGGGCTC,-0.215
20,ACGCTATC,0.125
21,ACGCACAG,-0.238
22,AAATTTTG,0.193
23,ATGTGTGA,0.103
24,ATAGGGGC,-0.206
25,AGACTCGG,-0.281

row,Sequence,binding signal [E-score]
1,AGCACTCC,-0.2
2,AAGTCACC,-0.247
3,ATCCAAAA,0.261
4,ATAGGGCA,-0.053
5,AGATGAGC,-0.231
6,CACTTAAG,-0.0632
7,ACAGGCTG,-0.267
8,AGAAAGCT,-0.0777
9,ACCAGGGG,-0.155
10,ATGTTTTC,0.0962
11,ACGCCAAC,-0.253
12,ACGGGATG,-0.165
13,AGATAAGA,0.0592
14,ACATCATG,-0.0829
15,AGTAGAAC,-0.0712
16,AAAGGGCG,-0.213
17,ATCGAGAT,0.327
18,ACACACCT,-0.176
19,AGGGACTC,-0.144
